Laboratory results published in PubChem BioAssay AID894 (National Center for Advancing Translational Sciences (NCATS), 2007).
Screen size: about 150,000 compounds; about 6,500 (4.3%) were called active. This list was built around the results that the source calls inconclusive (neither active nor inactive); the mix of calls is not that of the screen. The call rests on the fitted dose curve; in most records, active means well fitted inhibition curve with a large enough effect (not every such curve was filed as active); inconclusive means small, poorly fitted or top-dose-only effect, or another doubt; inactive means no such curve, though single readings can be large or run the other way. Potencies of inconclusive entries are doubtful fits and often do not repeat.

Molecular target: 15-hydroxyprostaglandin dehydrogenase [NAD(+)] (Homo sapiens) (UniProt P15428)
Assay: qHTS Assay for Inhibitors of HPGD (15-Hydroxyprostaglandin Dehydrogenase)
Details: purified HPGD, NADH fluorescence kinetic, PGE2 substrate; activity change, negative = inhibition: stronger effect = lower value
Outline: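 20 nM HPGD preincubated 15 min at room temperature with compound in 50 mM Tris-HCl pH 8, 0.01% Tween 20. Started with 1 mM NAD+ and 30 uM prostaglandin E2; NADH fluorescence (360/450 nm) read 5 times over 30-s intervals, last minus first.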
On the % scale 0 is the no-effect control and ±100 the full control effect; potency means the concentration at half of the fitted maximal effect; tags describe the fitted curve by direction and shape.

Chain of UniProt P15428 (P15428 whole entry, looked up): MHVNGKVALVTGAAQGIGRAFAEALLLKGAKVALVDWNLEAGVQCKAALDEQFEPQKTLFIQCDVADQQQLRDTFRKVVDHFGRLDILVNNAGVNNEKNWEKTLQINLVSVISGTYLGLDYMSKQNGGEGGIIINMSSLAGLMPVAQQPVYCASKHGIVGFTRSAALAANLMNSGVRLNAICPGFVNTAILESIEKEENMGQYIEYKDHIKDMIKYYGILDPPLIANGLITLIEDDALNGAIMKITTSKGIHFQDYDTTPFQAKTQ

Activity change, negative = inhibition, inactive:
COC(=O)[C@H]1C[C@@H]1[C@H](NC(C)=O)c1ccccc1 -4.22%
O=c1c2ccccc2c(-c2ccc(O)cc2)nn1-c1cccc(C(F)(F)F)c1 -9.8%
NC(=O)c1ccc[n+]([C@@H]2OC(COP(=O)([O-])OP(=O)(O)OCC3OC(n4cnc5c(N)ncnc54)C(O)C3O)C(O)C2O)c1 (stereo partly drawn) -20.5%
CN(C)S(=O)(=O)c1ccc(C(=O)OCC(=O)Nc2ccccc2OC(F)F)cc1 -0.106%
Cc1ccc(S(=O)(=O)NCC2CCC(C(=O)NCc3ccco3)CC2)cc1 (stereo not drawn) -16.3%
CCOc1ccc(OCC)c(NS(=O)(=O)c2ccc3c(c2)n(C)c(=O)c(=O)n3C)c1 -12%
COc1ccc(S(=O)(=O)NCC(c2cccnc2)N2CCN(C)CC2)cc1C (stereo not drawn) -1.91%
CCOC(=O)c1ccc(NC(=O)CSc2nnnn2C2CCCCC2)cc1 0.351%
COc1cccc(NC(=O)C(C#N)Cc2ccncc2)c1 (stereo not drawn) -0.739%
COc1cc(/C=N/O)cc(Cl)c1OC -21.1%
NC(=S)Nc1cc2ccccc2c2ccccc12 -7.97%
Oc1cccc(/C=N/Nc2cc(N3CCCC3)nc(N3CCCC3)n2)c1 -7.83%
CCN(CC)S(=O)(=O)c1ccc(C(=O)OCC(=O)N2CCN(C(=O)c3ccco3)CC2)cc1 -6.9%
COc1ccccc1C1C=C(c2ccc(C)cc2)Nc2nnnn21 (stereo not drawn) -14.6%

Potency, inconclusive:
COc1ccc2c(CN3CCN(S(=O)(=O)c4cccs4)CC3)cc(=O)oc2c1 25.1 µM [inhibitor, single point]
CCOc1cc(-c2c(C#N)c(N)nc3c2CCCC3)ccc1O 39.8 µM [inhibitor, single point]
O=C(OCC#CCSc1nnc(-c2cccc3ccccc23)o1)c1cccs1 31.6 µM [inhibitor, partial curve]
O=C(NCC1CCCO1)c1ccc(Cl)c(F)c1F (stereo not drawn) 28.2 µM [inhibitor, single point]
Fc1ccc(C2CC(c3ccco3)=NN2c2ccccc2)cc1 (stereo not drawn) 14.1 µM [inhibitor, partial curve]
Cc1ccc(C2CC2c2n[nH]c(=S)n2-c2cccc(Cl)c2)cc1 (stereo not drawn) 15.8 µM [inhibitor, partial curve]
O=C(NCc1cccs1)c1csc2ccccc12 22.4 µM [inhibitor, single point]
O=C(CN1CCCCC1)Nc1ccc(NC(=O)c2ccccc2Cl)cc1Cl 22.4 µM [inhibitor, single point]
CCOC(=O)C1=C(C)NC2=C(C(=O)CCC2)C1c1ccsc1 (stereo not drawn) 28.2 µM [inhibitor, partial curve]
COc1ccc(-n2c(C)cc(C(=O)COC(=O)c3cc(NC(=O)c4cccs4)c(OC)c(OC)c3)c2C)cc1 22.4 µM [inhibitor, partial curve, poor fit]
COc1ccc(C(=O)c2ccccc2)cc1Br 25.1 µM [inhibitor, single point]
O=C(CCSc1nc(-c2ccc3c(c2)OCO3)cc(C(F)(F)F)n1)NCc1ccccc1 28.2 µM [inhibitor, partial curve]
N#CCCn1c(=O)c(-c2cccs2)nc2cnc(Oc3ccccc3)nc21 8.91 µM [inhibitor, partial curve]
O=c1c2cccc3c2c(nn1CN1CCOCC1)-c1ccccc1-3 7.08 µM [inhibitor, full curve]
COC(=O)c1cc(OC)c(OC)cc1NCC(=O)Nc1cccc(C(F)(F)F)c1 28.2 µM [inhibitor, partial curve]
Cc1ccc2c(c1)/C(=N/OC(=O)c1ccc(F)cc1)CCS2 10 µM [inhibitor, partial curve]
COC(=O)C1=C(C)Nc2sc(C(N)=O)c(N)c2C1c1ccncc1 (stereo not drawn) 10 µM [inhibitor, partial curve]
COc1ccc(C2C=C(Nc3ccccc3)C(=O)N2c2ccccc2)cc1OC (stereo not drawn) 35.5 µM [inhibitor, single point]
COc1ccccc1C(=O)Nc1ccc2oc(-c3ccc(F)cc3)nc2c1 35.5 µM [inhibitor, partial curve]
CCCCN=Cc1sc2ccc(OCC)cc2c1O 25.1 µM [inhibitor, partial curve]
COc1ccc(-c2cc(C(F)F)n3ncc(C(=O)N4CCN(C)CC4)c3n2)cc1 25.1 µM [inhibitor, partial curve]
CCCc1c2ccccc2nc2ccccc12 31.6 µM [inhibitor, partial curve]
CN(C)c1ccc(C(=S)NCc2ccco2)cc1 14.1 µM [inhibitor, partial curve]
CC(C)CNC(=O)CSc1nc(-c2cccs2)cc(C(F)(F)F)n1 14.1 µM [inhibitor, partial curve]
Cc1cccc(N2CCN(C(=O)CS(=O)(=O)Cc3nc(-c4ccccc4F)oc3C)CC2C)c1 (stereo not drawn) 31.6 µM [inhibitor, single point]
S=c1[nH]nc(C2CCCCC2)n1/N=C/c1ccco1 22.4 µM [inhibitor, single point]
CC(C)Sc1nc(N)c2c3c(sc2n1)CN(C)CC3 25.1 µM [inhibitor, partial curve]
CCCCOc1ccc(/C=C/C(=O)OCC(=O)N2CC(=O)Nc3ccccc32)cc1OCC 25.1 µM [inhibitor, partial curve]
COCCNC(=O)c1c[nH]c2ccc(S(=O)(=O)N3CCC4(CC3)OCCO4)cc2c1=O 25.1 µM [inhibitor, single point]
COc1ccc(-c2cc3nc4c(c(=O)n3[nH]2)CCC4)cc1 14.1 µM [inhibitor, partial curve]
O=c1cc(C(F)(F)F)oc2c1ccc1ccccc12 25.1 µM [inhibitor, single point]
Cc1[nH]nc(N=Cc2c(O)n(C)c(=O)n(C)c2=O)c1-c1ccccc1 35.5 µM [inhibitor, partial curve]
Cc1cc(C)cc(OCC(=O)N2CCCCCC2)c1 15.8 µM [inhibitor, partial curve]
COc1ccc(-c2nc(-c3ccccc3OC)no2)cc1OC 25.1 µM [inhibitor, partial curve]
Cn1c(CNC(=O)c2ccco2)nnc1SCC(=O)Nc1cccc(Br)c1 35.5 µM [inhibitor, single point]
Cc1c(/C=C/C(=O)c2ccccc2)cnn1C 28.2 µM [inhibitor, partial curve]
COc1cc(C(=O)NCCCNc2nc3cc(C)cc(C)c3cc2C#N)cc(OC)c1OC 11.2 µM [inhibitor, partial curve]
O=C(CN1CCN(C2CCCCC2)CC1)c1ccc2cc[nH]c2c1 17.8 µM [inhibitor, partial curve]
COc1cc(OC)cc(-c2cc3nc(C)c(CCC(=O)O)c(C)n3n2)c1 31.6 µM [inhibitor, partial curve]
O=C(Nc1cccc2c1C(=O)NC2=O)c1ccc(S(=O)(=O)N2CCCC2)cc1 25.1 µM [inhibitor, partial curve]
O=c1c(Cl)c(N/N=C/c2ccc(Cl)cc2)cnn1-c1ccccc1 31.6 µM [inhibitor, partial curve]

Potency, active:
O=C(c1cnn2c(C(F)(F)F)cc(-c3ccc4c(c3)OCO4)nc12)N1CCCCC1 2.82 µM
CC(C)(C)CC(=O)Nc1ccc(Nc2ccccc2)cc1 14.1 µM
Cc1cc(-c2n[nH]c(=S)n2/N=C/c2ccc(Br)s2)n[nH]1 12.6 µM
O=C(c1ccc(Cl)s1)N1CCCC1 7.94 µM
O=c1oc2ccccc2c(NCc2ccccc2)c1[N+](=O)[O-] 25.1 µM
Cn1c(=O)cc(OCCCC(=O)NCc2ccco2)c2ccccc21 20 µM
CCC(OC(=O)c1ccco1)C(=O)NCc1ccc(C)cc1 (stereo not drawn) 28.2 µM
CC1CCN(c2[nH]c(=S)c(C#N)c3c2CCCC3)CC1 11.2 µM
Cc1ccc(CN=Cc2[nH]c3ccc(Br)c(Cl)c3c2O)cc1 28.2 µM
Cc1nn(C)cc1CNC(=O)Nc1ccc(Cl)c(Cl)c1 15.8 µM
Cc1ccsc1/C=N/n1c(-c2ccncc2)n[nH]c1=S 28.2 µM
CCOC(=O)c1c(-c2ccccc2)csc1NC(=O)CSc1nnnn1C 31.6 µM
COc1ccc(-n2c(N)c(C(=O)NCC3CCCO3)sc2=S)cc1 (stereo not drawn) 15.8 µM
CC(C)C(NC(=O)CSc1ccc(Cl)cc1)C(C)C 12.6 µM
Oc1c(C(c2ccccc2)N2CCc3ccccc3C2)sc2ncnn12 (stereo not drawn) 31.6 µM
Cc1ccc(C)c(Cn2nnc3c(=O)[nH]c(C4CCN(C(=O)c5cccs5)CC4)nc32)c1 0.562 µM
CCOC(=O)c1cc(-c2ccccc2)sc1N 11.2 µM
CCCOC(=S)N/C(=N\S(=O)(=O)c1ccccc1)c1ccccc1 28.2 µM
